We go through 89 molecules from PubChem BioAssay AID463173 (ICCB-Longwood Screening Facility, Harvard Medical School, 2010).

The whole screen tested about 52,000 compounds, of which about 4,300 (8.3%) were called active. Cut-off read from the data, not from the text of the source: active = survival mostly below about 52% (no sharp cut-off); inactive = mostly above about 56%. This is one part of the list.

In the assay the test system is DeltatarO mutant. As to the kind of experiment: S. aureus survival, RN4220 and DeltatarO strains – OD600, teichoic acid synthesis inhibitors, primary screen (AID 463173). The conditions noted are these: S. aureus RN4220 wild type/DeltatarO growth, OD600, 18 h, active compounds read low, screened at 18.75 µg/mL (by protocol).
For `Cc1cccc(C(=O)NC(c2n[nH]c(=S)n2C)C(C)C)c1` (centres undefined), the survival was inactive: 111%.

For `CC(=O)Nc1ccc(-n2c(CCC(=O)O)ccc2-c2ccc(Br)cc2)cc1`, the survival was active: 45%. To `COc1ccc(Cl)cc1NC(=O)Cn1c(=O)n(Cc2cccs2)c(=O)c2cccnc21` belongs inactive: 63%. With `Cc1nc2cccnc2n1C1CCN(S(=O)(=O)N(C)C)CC1`, the survival is inactive: 70%. Take `COc1ccc(CNC(=O)Cc2c(C)c3c(cc(C)c4c(C)coc43)oc2=O)cc1OC`: the survival is inactive: 85%.

For `CCOC(=O)c1cc(-c2ccc(C)cc2)n(CC(=O)Nc2ccccc2F)c1C`, the survival was inactive: 80%.

For `COc1ccc(Br)c2c1-c1nc(NC(=O)c3ccccc3F)sc1C2`, the survival was inactive: 69%.

Take `O=C(NCc1ccccn1)C1CCCCC1`: the survival is inactive: 69%.

Take `COC(=O)c1ccccc1NC(=O)c1ccc(COc2cc(C)cc(C)c2)o1`: the survival was inactive: 40%. To `Cc1ccc2nc(-c3cc4ccccc4oc3=O)[nH]c2c1` belongs inactive: 66%. To `COc1ccc(CCCc2nnc(SCC(=O)Nc3cc(C)ccc3C)o2)cc1` belongs inactive: 55%; to `Cc1ccc(NC2=NCC(=O)N2C2CCCC2)cc1C`, inactive: 89%; to `Cc1ncc(CO)c2c1Oc1nc(-c3ccc(F)cc3)nc(SCC(=O)N3CCCCC3)c1C2`, inactive: 52%. To `Cc1ccc(CN2C(=O)N(c3ccc(F)cc3)C(=O)C2CC(=O)Nc2ccc(Cl)cc2)cc1` (centres undefined) belongs inactive: 95%; to `COC(=O)CN1C(=O)CSc2ccc(S(=O)(=O)Nc3cccc(Br)c3)cc21`, active: 37%. As for `Cc1ccc(NC(=O)CSc2nnc(-c3cc4occc4n3C)n2-c2ccccc2C)c(Cl)c1`, the survival is inactive: 97%. For `O=C(NCCc1ccccc1)C1CCN(c2ncnc3c2nc2n3CCCCC2)CC1`, the survival is active: -2%. As for `COc1ccc(NC(=O)CSC2=Nc3ccccc3C3=NC(CCC(=O)NCc4cccs4)C(=O)N23)cc1` (centres undefined), the survival was inactive: 93%. For `Cc1ccc(C)c(Cn2c3ccccc3c3cnn(CC(=O)NC4CCC(C)CC4)c(=O)c32)c1` (centres undefined) the value was inactive: 64%; for `Cc1nn(-c2ccc(F)cc2)c(-n2cccc2)c1C(=O)N1CCN(c2ccccc2)CC1`, inactive: 77%; for `Cc1cc2nn(-c3ccccc3)nc2cc1NC(=O)COc1ccc(Cl)cc1`, inactive: 64%. Consider `C=CCn1c(CSc2nc3ccccc3s2)nnc1SCC(=O)NCCN1CCOCC1`, for which the survival is inactive: 99%. Regarding `CCOc1ccc(Cn2nnc(C(=O)Nc3cccc(SC)c3)c2N)cc1`, the survival is active: 30%. To `CCCN(CCC)C(=O)Cn1c(=O)n(-c2ccc(C)c(C)c2)c(=O)c2c3c(sc21)CCCCC3` belongs inactive: 69%. As for `COC(=O)C1CSCN1` (centres undefined), the survival is inactive: 78%. For `Cc1cc(NC(=O)c2cc(-c3cccc(Cl)c3)on2)nn1Cc1ccc(Cl)cc1` the value was active: 43%. Consider `CC1CCC(NC(=O)CCc2cn(Cc3ccccc3Cl)c3ccccc23)CC1` (centres undefined), for which the survival was active: 51%. For `CC1(C)CC(=O)C/C(=N\NC(=O)CCc2ccccc2)C1` the value was inactive: 93%.

As for `Cc1nnc(N2CCC(C(=O)Nc3ccc(F)cc3)CC2)c2nn(-c3ccc(Cl)cc3)c(C)c12`, the survival was inactive: 72%. As to `Cc1ccc(C(=O)Nc2c(-c3ccccc3)nc3ccccn23)cc1`, the survival was active: 40%. Take `Cc1ccc(C2c3[nH]c4ccccc4c3CCN2C(=O)c2ccccc2Br)cc1` (centres undefined): the survival was inactive: 77%.

`CCCCOC(=O)/C(C#N)=C/c1ccc(-c2cccc(C(F)(F)F)c2)o1`: the survival was active: 46%.

On to `CCOc1ccc(-c2nonc2NC(=O)c2ccco2)cc1`, for which the survival is inactive: 79%. For `CCOc1ccc(NC(=O)CSc2nc3c(oc4ccccc43)c(=O)n2-c2cc(C)cc(C)c2)cc1`, the survival was inactive: 73%. As to `COc1cc(/C=C/c2nc(C#N)c(N3CCCCC3)o2)cc(OC)c1OC`, the survival is inactive: 89%. Take `Cc1ccccc1CNC(=O)C1CCN(S(=O)(=O)Cc2ccccc2)CC1`: the survival was inactive: 75%. As to `CCc1ccc(NC(=O)C(=O)NCC(c2cccnc2)N2CCN(Cc3ccccc3)CC2)cc1` (centres undefined), the survival was inactive: 75%. For `O=C(CCCn1c(=O)c2cccn2c2ccc(F)cc21)NCc1ccc(Cl)cc1` the value was active: 38%. For `COC(=O)CC1Oc2ccccc2-n2cc(-c3ccccc3)nc21` (centres undefined) the value was inactive: 66%; for `CC1CCN(C(=O)CSc2c(C(C)C)cnc3c2c(=O)n(C)c(=O)n3C)CC1`, inactive: 98%; for `Cc1ccccc1CSc1nc2cc(C(=O)NC3CCCC3)ccc2c(=O)n1Cc1ccccc1`, inactive: 107%. On to `Cc1ccc(O)c(NC(=O)c2ccc(Br)c(S(=O)(=O)N3CCCCC3)c2)c1`, for which the survival was inactive: 92%.

For the molecule `CCN(Cc1ccccc1)C(=O)Cn1cc(S(=O)(=O)Cc2cccc(Cl)c2)c2ccccc21`, the survival was inactive: 101%.

Consider `Cc1cc2c(cc1C)NC(CC(=O)Nc1ccccc1)C(=O)N2` (centres undefined), for which the survival is inactive: 56%. For `CC1(C)CC(=O)C2=C(C1)OC(N)=C(C#N)C2C#Cc1ccccc1` (centres undefined), the survival is inactive: 104%. For `CCOC(=O)Cn1c(=O)n(CC2CCCO2)c2nc(-c3cccc(C)c3)nc(C(N)=O)c21` (centres undefined) the value was inactive: 79%.

As for `CCOc1ccccc1NC(=O)CCc1c(C)nn(-c2ccc(N3CCOCC3)nn2)c1C`, the survival was inactive: 80%. To `Cc1ccc(NC(=O)CSc2ncn[nH]2)cc1C` belongs inactive: 77%; to `Cc1c(Cl)cccc1NC(=O)c1noc2c1CCCC2`, inactive: 66%.

With `CCn1c(C)c(C)c2cc(C(=O)NCCCN3CCCCC3)ccc21`, the survival is inactive: 90%. For `Cc1ccc(C)c(N2CCN(Cc3nnc(-c4ccc5c(c4)OCO5)o3)CC2)c1` the value was inactive: 70%; for `Cn1c(=O)oc2cc(S(=O)(=O)NC(Cc3ccccc3)C(=O)NCc3ccc(F)cc3)ccc21` (centres undefined), inactive: 92%; for `COc1ccccc1OC(C)C(=O)Nc1c(C(=O)c2ccc(Cl)cc2)oc2ccccc12` (centres undefined), inactive: 81%. To `CCC(=O)N1c2ccccc2CC1C(=O)NCCN1CCN(c2cccc(C(F)(F)F)c2)CC1` (centres undefined) belongs inactive: 105%; to `CCC(=O)Nc1ccc2nc(SCCOc3ccccc3)sc2c1`, inactive: 87%; to `CCCCOc1ccc(CNC(=O)c2ccc(NC(=O)N3CCCCc4ccccc43)cc2)cc1`, inactive: 70%.

As for `CC(=O)Nc1nonc1-c1nnc(SCC(=O)Nc2ccccc2)n1-c1ccccc1`, the survival is active: 39%. For `O=C(CNC(=O)c1ccccc1F)OCc1cc(=O)n2ccsc2n1` the value was inactive: 73%; for `COc1ccc(OC)c(NC(=O)Cn2ccc3ccccc3c2=O)c1`, inactive: 76%. `COc1ccccc1C(=O)Nc1nnc(SCc2cc(=O)c3cc(Cl)ccc3[nH]2)s1`: the survival was inactive: 62%. Take `COc1ccc(NC(=O)c2c(-c3ccc(C)cc3)nnc3ccccc23)cc1Cl`: the survival was inactive: 67%. On to `CCN(CC)C(=O)Cn1c(=O)n(-c2ccc(OC)cc2OC)c(=O)c2c(C)c(C(=O)N(CC)CC)sc21`, for which the survival is inactive: 89%. On to `CCc1c(C)nc2cc(-c3cc(OC)cc(OC)c3)nn2c1NCCCN(CC)CC`, for which the survival is inactive: 113%. To `O=C(NCc1ccco1)C(Sc1ccccc1)c1ccccc1` (centres undefined) belongs inactive: 101%; to `Cc1ccc(C)c(N2CCN(C(=O)C3CCCN(S(=O)(=O)c4cccc5nsnc45)C3)CC2)c1` (centres undefined), inactive: 77%; to `Cc1ccc(N(CC(=O)NCc2ccc(F)cc2)S(=O)(=O)c2c(C)nn(C)c2C)cc1`, inactive: 68%. For `COc1cccc(CNC(=O)c2ccc3c(c2)nnn3C2CCCC2)c1` the value was inactive: 130%; for `CCCCSCCCNC(=O)c1cn(C)c2ccc(S(=O)(=O)N3CCCCC3)cc2c1=O`, inactive: 79%; for `COc1ccc(-n2nc(C(=O)Nc3ccc(C)cn3)c3c4ccccc4n(C)c3c2=O)cc1`, inactive: 76%. For `Cc1ccc(-n2cc(-c3ccccc3)nc2S(=O)(=O)CC(=O)Nc2ccc(F)cc2)cc1` the value was inactive: 103%. Regarding `O=C(NCC1CCN(S(=O)(=O)c2ccc(Cl)cc2)CC1)C1CCCO1` (centres undefined), the survival is inactive: 80%.

For `CCN(CC)CCCNC(=O)c1cn(CC)c2ccc(S(=O)(=O)N3CCc4ccccc4C3)cc2c1=O`, the survival was inactive: 121%. For `O=S(=O)(c1ccccc1)c1nc(-c2ccc(Cl)cc2Cl)oc1N1CCCCC1` the value was inactive: 90%; for `Cc1nc(-c2ccc(Cl)cc2)sc1CCNC(=O)Cc1ccc(F)cc1`, inactive: 98%. For `COc1ccc(C)cc1NC(=O)Cn1c(=O)cc(C)c2c(C)nn(C)c21` the value was inactive: 77%. For `Cc1ccc(CN2CCN(C3CCN(C(=O)c4ccccc4)CC3)C(=O)C2=O)cc1` the value was inactive: 88%. On to `Cc1ccc(CSc2oc(-c3ccco3)nc2S(=O)(=O)c2ccc(C)cc2)cc1`, for which the survival was inactive: 62%. To `COc1cc(/C=C(\C#N)c2nc3ccccc3[nH]2)cc(Cl)c1OCc1ccccc1Cl` belongs inactive: 68%; to `CCOC(=O)c1ccc(NC(=O)/C(C#N)=C/c2ccc(OC)cc2)cc1`, inactive: 82%. For `O=C(CSc1nccc(=O)[nH]1)Nc1cccc2ccccc12` the value was inactive: 68%. As to `S=c1nc(CNc2ccccc2)[nH][nH]1`, the survival is inactive: 90%. As for `CCc1ccc(-n2c(=O)c3c(C)c(C)sc3n(CC(=O)NCc3ccc(C)cc3)c2=O)cc1`, the survival is inactive: 138%.

As for `CCCCc1nn2c(=O)cc(COC(=O)c3cccc(NC(=O)CCc4ccccc4)c3)nc2s1`, the survival was inactive: 91%. For `CCCN(CCC)C(=O)Cn1c(=O)n(-c2ccccc2)c(=O)c2c3c(sc21)CCCC3` the value was inactive: 74%; for `N#C/C(=C/c1ccc(Cl)cc1)c1nc(-c2ccc(Br)cc2)cs1`, inactive: 65%; for `O=S(=O)(NCc1nc2cccnc2n1Cc1ccccc1)c1ccc2c(c1)CCCC2`, inactive: 73%. Turning to `Cc1c(NC(=O)Nc2ccc(Br)cc2F)sc2nc3n(c(=O)c12)CCC(C)CC3` (centres undefined), the survival is inactive: 98%. `CCOC(=O)c1c(S(=O)(=O)NCC(=O)N2CCN(c3ccccc3)CC2)c(C)n(C)c1C`: the survival is inactive: 87%. For the molecule `COc1ccccc1CNC(=O)CCn1c(=O)c2ccccc2n(CC(=O)Nc2ccc(C)cc2Cl)c1=O`, the survival is inactive: 77%.
